Here are results for 7 molecules from PMC7297730.

No constants are given. Whether binding was seen depends on the method and setting. Some results given as binding are weak or reduced against the parent protein; the word gives no strength.

Test [1] has as its target T1, pGBKT7-Nse3(aa1-328) (S. pombe) (UniProt Q9Y7U4).
T1 sequence: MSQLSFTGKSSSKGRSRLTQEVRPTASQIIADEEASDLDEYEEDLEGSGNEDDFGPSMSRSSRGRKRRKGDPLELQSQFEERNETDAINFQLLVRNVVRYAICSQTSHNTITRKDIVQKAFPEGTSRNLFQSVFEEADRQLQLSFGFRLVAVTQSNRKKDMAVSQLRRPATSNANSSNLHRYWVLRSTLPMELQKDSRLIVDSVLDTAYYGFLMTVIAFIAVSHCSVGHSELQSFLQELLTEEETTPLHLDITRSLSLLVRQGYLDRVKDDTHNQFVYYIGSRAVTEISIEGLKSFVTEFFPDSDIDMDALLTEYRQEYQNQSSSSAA
Briefly: two-hybrid; 3Y2H of the Nse1-Nse3-Nse4 trimer: hybrid Nse3 and Nse4 with non-hybrid Nse1 wild type (Fig. 4A, columns 5 and 6; Fig. 5A, column 6).

The target in test [2] is T2, Nse5-Nse6 (Gal4BD-Nse5 with non-hybrid Nse6) (S. pombe) (UniProt O94668+O13688).
T2 sequence 1: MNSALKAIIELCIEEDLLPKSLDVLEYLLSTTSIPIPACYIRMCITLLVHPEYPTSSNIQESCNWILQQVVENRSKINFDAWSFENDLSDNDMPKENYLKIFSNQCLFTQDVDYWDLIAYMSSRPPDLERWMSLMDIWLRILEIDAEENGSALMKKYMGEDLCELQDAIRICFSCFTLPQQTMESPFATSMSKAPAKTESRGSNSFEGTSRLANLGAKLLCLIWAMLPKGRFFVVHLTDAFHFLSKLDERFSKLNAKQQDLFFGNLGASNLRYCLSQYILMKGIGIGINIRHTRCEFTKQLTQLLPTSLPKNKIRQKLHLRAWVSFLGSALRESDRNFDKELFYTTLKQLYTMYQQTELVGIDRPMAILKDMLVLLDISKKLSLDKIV
T2 sequence 2: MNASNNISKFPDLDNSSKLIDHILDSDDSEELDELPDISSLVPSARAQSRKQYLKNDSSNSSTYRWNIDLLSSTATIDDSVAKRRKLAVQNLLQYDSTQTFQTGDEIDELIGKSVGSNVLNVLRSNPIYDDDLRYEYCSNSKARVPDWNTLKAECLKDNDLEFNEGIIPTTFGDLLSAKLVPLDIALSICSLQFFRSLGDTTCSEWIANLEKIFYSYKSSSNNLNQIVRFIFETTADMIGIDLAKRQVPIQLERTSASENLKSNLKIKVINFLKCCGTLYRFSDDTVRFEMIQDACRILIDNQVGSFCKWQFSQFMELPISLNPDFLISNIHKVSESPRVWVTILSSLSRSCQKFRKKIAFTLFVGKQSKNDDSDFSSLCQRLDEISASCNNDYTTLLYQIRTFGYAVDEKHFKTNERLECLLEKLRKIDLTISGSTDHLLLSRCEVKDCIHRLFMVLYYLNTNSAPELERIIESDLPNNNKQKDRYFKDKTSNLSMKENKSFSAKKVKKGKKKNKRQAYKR
Briefly: two-hybrid; 3Y2H: Gal4AD-SMC6 + Gal4BD-Nse5 + non-hybrid Nse6 (p416ADH1-Nse6); -L,T,U,H plates with 3 mM 3-aminotriazole.

Test [3] addresses T3, SMC6 peptide aa970-994 (S. pombe) (UniProt P53692).
T3 sequence (peptide): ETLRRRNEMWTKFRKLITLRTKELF
The test is described as follows: ELISA; SMC6 peptides (library covering aa875-1024) pre-bound to ELISA plates, tested against Nse4(1-150) and control human TRF2 protein.

Test [4] deals with T4, SMC6 peptide aa960-984 (S. pombe) (UniProt P53692).
T4 sequence (peptide): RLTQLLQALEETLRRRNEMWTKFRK
Described as above.

The target in test [5] is T1, pGBKT7-Nse3(aa1-328) (S. pombe). Briefly: two-hybrid; classical Y2H of the Nse1-Nse3 binary interaction (Fig. 4A, columns 9 and 10).

B1: pGADT7-Nse4(aa1-300)/del87-91 (protein, UniProt Q6BDR8)
chain: MSSIDKRDLRKRYRNLINKVQESRLELVDEENNNLYETITTANDLFSSVDAPTEATLDALLLTKTVDLASIKARQLHIGRPKFNIEIKQFLNYPTSHSNVTRIQEIDTAWSRLGKLASNCEKQPASLNLMVGPLSFRKKERNIQRRERLQKAPNVLTQPTMLNERNITTQENNTTKNVLHISRLLQAHQPVNFLKFITNPQSYPQTVENLFYVSFLFKEGKAALVENESGILMLETRIPPTDDQVVAGEIRNIQLVLDMTMDLYENIIKEYNIKESIIPTRAPVETSTNSNTWYG
Regarding B1, the binding result in test [1] is “binds”.

B2: Gal4AD-SMC6 L965A (protein, UniProt P53692 1-1140)
chain: MTTELTNVSLEEAITEKTSENRRKRDSDVLQTEEVDLSNVKRIRASRNQDNRPERQSRLQRSSSLIEQVRGNEDGENDVLNQTRETNSNFDNRVGVIECIHLVNFMCHDSLKINFGPRINFVIGHNGSGKSAILTGLTICLGAKASNTNRAPNMKSLVKQGKNYARISVTISNRGFEAYQPEIYGKSITIERTIRREGSSEYRLRSFNGTVISTKRDELDNICDHMGLQIDNPMNILTQDTARQFLGNSSPKEKYQLFMKGIQLKQLEENYSLIEQSLINTKNVLGNKKTGVSYLAKKEEEYKLLWEQSRETENLHNLLEQKKGEMVWAQVVEVEKELLLAEKEFQHAEVKLSEAKENLESIVTNQSDIDGKISSKEEVIGRAKGETDTTKSKFEDIVKTFDGYRSEMNDVDIQKRDIQNSINAAKSCLDVYREQLNTERARENNLGGSQIEKRANESNNLQREIADLSEQIVELESKRNDLHSALLEMGGNLTSLLTKKDSIANKISDQSEHLKVLEDVQRDKVSAFGKNMPQLLKLITRETRFQHPPKGPMGKYMTVKEQKWHLIIERILGNVINGFIVRSHHDQLILKELMRQSNCHATVVVGKYDPFDYSSGEPDSQYPTVLKIIKFDDDEVLHTLINHLGIEKMLLIEDRREAEAYMKRGIANVTQCYALDPRNRGYGFRIVSTQRSSGISKVTPWNRPPRIGFSSSTSIEAEKKILDDLKKQYNFASNQLNEAKIEQAKFKRDEQLLVEKIEGIKKRILLKRREVNSLESQELSVLDTEKIQTLERRISETEKELESYAGQLQDAKNEEHRIRDNQRPVIEEIRIYREKIQTETQRLSSLQTELSRLRDEKRNSEVDIERHRQTVESCTNILREKEAKKVQCAQVVADYTAKANTRCERVPVQLSPAELDNEIERLQMQIAEWRNRTGVSVEQAAEDYLNAKEKHDQAKVLVARLTQLAQALEETLRRRNEMWTKFRKLITLRTKELFELYLSQRNFTGKLVIKHQEEFLEPRVYPANRNLATAHNRHEKSKVSVQGLSGGEKSFATICMLLSIWEAMSCPLRCLDEFDVFMDAVNRLVSIKMMVDSAKDSSDKQFIFITPQDMGQIGLDKDVVVFRLSDPVVSSSALPPSTAP
With B2, in test [2], the binding entry is listed as “binds”.

B3: Gal4AD-SMC6 L972A (protein, UniProt P53692 1-1140)
chain: MTTELTNVSLEEAITEKTSENRRKRDSDVLQTEEVDLSNVKRIRASRNQDNRPERQSRLQRSSSLIEQVRGNEDGENDVLNQTRETNSNFDNRVGVIECIHLVNFMCHDSLKINFGPRINFVIGHNGSGKSAILTGLTICLGAKASNTNRAPNMKSLVKQGKNYARISVTISNRGFEAYQPEIYGKSITIERTIRREGSSEYRLRSFNGTVISTKRDELDNICDHMGLQIDNPMNILTQDTARQFLGNSSPKEKYQLFMKGIQLKQLEENYSLIEQSLINTKNVLGNKKTGVSYLAKKEEEYKLLWEQSRETENLHNLLEQKKGEMVWAQVVEVEKELLLAEKEFQHAEVKLSEAKENLESIVTNQSDIDGKISSKEEVIGRAKGETDTTKSKFEDIVKTFDGYRSEMNDVDIQKRDIQNSINAAKSCLDVYREQLNTERARENNLGGSQIEKRANESNNLQREIADLSEQIVELESKRNDLHSALLEMGGNLTSLLTKKDSIANKISDQSEHLKVLEDVQRDKVSAFGKNMPQLLKLITRETRFQHPPKGPMGKYMTVKEQKWHLIIERILGNVINGFIVRSHHDQLILKELMRQSNCHATVVVGKYDPFDYSSGEPDSQYPTVLKIIKFDDDEVLHTLINHLGIEKMLLIEDRREAEAYMKRGIANVTQCYALDPRNRGYGFRIVSTQRSSGISKVTPWNRPPRIGFSSSTSIEAEKKILDDLKKQYNFASNQLNEAKIEQAKFKRDEQLLVEKIEGIKKRILLKRREVNSLESQELSVLDTEKIQTLERRISETEKELESYAGQLQDAKNEEHRIRDNQRPVIEEIRIYREKIQTETQRLSSLQTELSRLRDEKRNSEVDIERHRQTVESCTNILREKEAKKVQCAQVVADYTAKANTRCERVPVQLSPAELDNEIERLQMQIAEWRNRTGVSVEQAAEDYLNAKEKHDQAKVLVARLTQLLQALEETARRRNEMWTKFRKLITLRTKELFELYLSQRNFTGKLVIKHQEEFLEPRVYPANRNLATAHNRHEKSKVSVQGLSGGEKSFATICMLLSIWEAMSCPLRCLDEFDVFMDAVNRLVSIKMMVDSAKDSSDKQFIFITPQDMGQIGLDKDVVVFRLSDPVVSSSALPPSTAP
As to B3, the binding entry in test [2] is “binds”.

B4: Gal4AD-SMC6 R975A (protein, UniProt P53692 1-1140)
chain: MTTELTNVSLEEAITEKTSENRRKRDSDVLQTEEVDLSNVKRIRASRNQDNRPERQSRLQRSSSLIEQVRGNEDGENDVLNQTRETNSNFDNRVGVIECIHLVNFMCHDSLKINFGPRINFVIGHNGSGKSAILTGLTICLGAKASNTNRAPNMKSLVKQGKNYARISVTISNRGFEAYQPEIYGKSITIERTIRREGSSEYRLRSFNGTVISTKRDELDNICDHMGLQIDNPMNILTQDTARQFLGNSSPKEKYQLFMKGIQLKQLEENYSLIEQSLINTKNVLGNKKTGVSYLAKKEEEYKLLWEQSRETENLHNLLEQKKGEMVWAQVVEVEKELLLAEKEFQHAEVKLSEAKENLESIVTNQSDIDGKISSKEEVIGRAKGETDTTKSKFEDIVKTFDGYRSEMNDVDIQKRDIQNSINAAKSCLDVYREQLNTERARENNLGGSQIEKRANESNNLQREIADLSEQIVELESKRNDLHSALLEMGGNLTSLLTKKDSIANKISDQSEHLKVLEDVQRDKVSAFGKNMPQLLKLITRETRFQHPPKGPMGKYMTVKEQKWHLIIERILGNVINGFIVRSHHDQLILKELMRQSNCHATVVVGKYDPFDYSSGEPDSQYPTVLKIIKFDDDEVLHTLINHLGIEKMLLIEDRREAEAYMKRGIANVTQCYALDPRNRGYGFRIVSTQRSSGISKVTPWNRPPRIGFSSSTSIEAEKKILDDLKKQYNFASNQLNEAKIEQAKFKRDEQLLVEKIEGIKKRILLKRREVNSLESQELSVLDTEKIQTLERRISETEKELESYAGQLQDAKNEEHRIRDNQRPVIEEIRIYREKIQTETQRLSSLQTELSRLRDEKRNSEVDIERHRQTVESCTNILREKEAKKVQCAQVVADYTAKANTRCERVPVQLSPAELDNEIERLQMQIAEWRNRTGVSVEQAAEDYLNAKEKHDQAKVLVARLTQLLQALEETLRRANEMWTKFRKLITLRTKELFELYLSQRNFTGKLVIKHQEEFLEPRVYPANRNLATAHNRHEKSKVSVQGLSGGEKSFATICMLLSIWEAMSCPLRCLDEFDVFMDAVNRLVSIKMMVDSAKDSSDKQFIFITPQDMGQIGLDKDVVVFRLSDPVVSSSALPPSTAP
For the molecule B4, the binding result in test [2] is “binds”.

B5: Nse4(1-150) (domain or fragment, UniProt Q6BDR8 1-150)
chain: MSSIDKRDLRKRYRNLINKVQESRLELVDEENNNLYETITTANDLFSSVDAPTEATLDALLLTKTVDLASIKARQLHIGRPKFNIELFTKNIKQFLNYPTSHSNVTRIQEIDTAWSRLGKLASNCEKQPASLNLMVGPLSFRKKERNIQR
As to B5, the binding entry in test [3] and in test [4] was “binds weakly” in each case.

B6: pOAD-Nse1(aa1-232) (protein, UniProt Q53EK2 1-232)
chain: MEKERQDGLSDKHKFILQYIMCRTAGVDNEQVRELVQEQYGETATVEDVINELNNSLHNFDFKIKRVQDQLDGRLTLHFQNLSGDPVSQMATPYPPVQIELMRKIIEWIMKCDDYQYSLTTLQIQKLSRKEMGLAPSVIESHLHTFERDGWLRQREGIWTFTNHALAELDAYLHNEYESNLYECNACREIVIAGYVCDCGYCLHVYCCKHLAHVNCINCNTPWANATVIGRW
In the case of B6, the binding entry in test [5] is recorded as “binds”.

B7: pOAD-Nse1(aa1-232) Q18A, M21A (protein, UniProt Q53EK2 1-232)
chain: MEKERQDGLSDKHKFILAYIACRTAGVDNEQVRELVQEQYGETATVEDVINELNNSLHNFDFKIKRVQDQLDGRLTLHFQNLSGDPVSQMATPYPPVQIELMRKIIEWIMKCDDYQYSLTTLQIQKLSRKEMGLAPSVIESHLHTFERDGWLRQREGIWTFTNHALAELDAYLHNEYESNLYECNACREIVIAGYVCDCGYCLHVYCCKHLAHVNCINCNTPWANATVIGRW
As to B7, in test [5], the binding entry was “no binding”.
